# Data as given in the antibiotic and cytotoxicity screens of Wong et al. (2023).
# The other results are listed elsewhere or left out.
# Key:
# [1] = tested on: HSkMC (human skeletal muscle cells); assay: cytotoxicity call (relative viability < 0.9); conditions: 10 µM
# [2] = tested on: HepG2; assay: cytotoxicity call (relative viability < 0.9); conditions: 10 µM
# [3] = tested on: S. aureus RN4220; assay: growth inhibition call (relative growth <= 0.2); conditions: 50 µM
SMILES,cytotoxicity call [1],cytotoxicity call [2],growth inhibition call [3]
CC(C)(O)c1ccccc1CC[C@@H](SCC1(CC(=O)O)CC1)c1cccc(/C=C/c2ccc3ccc(Cl)cc3n2)c1,active,inactive,inactive
CCOc1nc2cccc(C(=O)O)c2n1Cc1ccc(-c2ccccc2-c2nnn[nH]2)cc1,inactive,inactive,inactive
C[C@@H]1CN([C@@H](C)CO)C(=O)Cc2cc(NC(=O)Nc3ccc(C(F)(F)F)cc3)ccc2O[C@@H]1CN(C)Cc1ccccc1,active,active,inactive
C[C@@H]1CCCCO[C@@H](CN(C)CC2CC2)[C@H](C)CN([C@H](C)CO)C(=O)c2cc(NS(C)(=O)=O)ccc2O1,inactive,inactive,inactive
CSc1nc(C)cc(NC(N)=O)n1,inactive,inactive,inactive
COCCn1cc(N)cn1,inactive,inactive,inactive
COc1ccc(NC(=O)Nc2ccc3c(c2)C(=O)N([C@H](C)CO)C[C@H](C)[C@H](CN(C)Cc2ccc(C(F)(F)F)cc2)OCCCC[C@@H](C)O3)cc1,inactive,inactive,inactive
C[C@@H]1CCCCO[C@@H](CN(C)Cc2ccc3c(c2)OCO3)[C@H](C)CN([C@@H](C)CO)C(=O)c2cc(NC(=O)Nc3ccc(F)cc3)ccc2O1,inactive,inactive,inactive
C=C[C@H]1[C@H](O[C@H]2O[C@@H](CO)[C@@H](O)[C@@H](O)[C@@H]2O)OC=C(C(=O)OC)[C@H]1CCOC(=O)c1cc(O)c(O)c(O)c1,inactive,inactive,inactive
C[C@@H]1CN([C@@H](C)CO)C(=O)c2cc(C#Cc3ccccn3)cnc2O[C@H]1CN(C)C(=O)CCN1CCCCC1,inactive,inactive,inactive
